# In the antibiotic and cytotoxicity screens of Wong et al. (2023):
# This is one part of the list.
# Test system: HepG2
# Test: cytotoxicity call (relative viability < 0.9)
# Details: 10 µM
row,SMILES,cytotoxicity call
1,C=C1C(CO)C(O)CC1n1cnc2c(=O)[nH]c(N)nc21.O (stereo not drawn),active
2,C[C@H]1CN([C@@H](C)CO)C(=O)c2c(c3ccccc3n2C)-c2ccccc2CO[C@@H]1CN(C)Cc1cccc(O)c1,inactive
3,C[C@@H]1CN([C@H](C)CO)C(=O)c2cc(NC(=O)Cn3cnnn3)ccc2O[C@@H]1CN(C)C(=O)NC1CCCCC1,inactive
4,c1ccc(CCN2CCNCC2)nc1,inactive
5,CCCOC(=S)N[C@H]1OC[C@@H](O)[C@@H](O)[C@@H]1O,inactive
6,COc1ccccc1NC(=O)N(C)C[C@H]1Oc2ncc(C#CC(C)C)cc2C(=O)N([C@@H](C)CO)C[C@@H]1C,inactive
7,Cc1nc(C2C(=N)N([C@H]3CS(=O)(=O)C[C@@H]3O)CC2=O)sc1C (stereo partly drawn),inactive
8,C[C@@H]1CCCCO[C@H](CN(C)C(=O)CCCN(C)C)[C@H](C)CN([C@H](C)CO)C(=O)c2cc(NC(=O)Nc3cccc4ccccc34)ccc2O1,inactive
9,CC(C)NC(=O)N(C)C[C@H]1Oc2ccc(NC(=O)Cc3ccccc3)cc2C(=O)N([C@@H](C)CO)C[C@@H]1C,inactive
10,COC(=O)C[C@@H]1C=C[C@@H](N)[C@H](CO)O1,inactive
11,Cc1ccc(S(=O)(=O)n2cc([C@H]3CC(=O)N(C(=O)OCc4ccccc4)[C@H]3C(=O)Nc3cccc4cccnc34)c3ccccc32)cc1,inactive
12,C[C@@H]1CN([C@H](C)CO)C(=O)c2cc(NS(=O)(=O)c3ccc(F)cc3)ccc2O[C@@H](C)CCCCO[C@@H]1CN(C)C(=O)CCC(F)(F)F,inactive
13,C[C@H]1CN([C@@H](C)CO)C(=O)c2cccc(NC(=O)c3ccncc3)c2O[C@H]1CN(C)S(=O)(=O)c1cn(C)cn1,inactive
